# According to article PMC6919601, “Identification of Plasmodium dipeptidyl aminopeptidase allosteric inhibitors by high throughput screening” (PLoS ONE, 2019):
# Screen size: about 110,000 compounds; about 230 (0.21%) showed an effect of 50% or more. The list shows a part of the results.
# Molecular target: DPAP1 (Plasmodium falciparum, UniProt Q8IIJ9)
# Test: primary screen, percent inhibition; read by cleavage of a fluorogenic dipeptide substrate; higher = more effect of the substance
# Set-up: species or system P. falciparum D10 trophozoite lysates; single well
# 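Also: 30 min substrate incubation versus DMSO and 10 µM JCP410 controls.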
# Sequence of DPAP1 (Q8IIJ9 whole entry, looked up): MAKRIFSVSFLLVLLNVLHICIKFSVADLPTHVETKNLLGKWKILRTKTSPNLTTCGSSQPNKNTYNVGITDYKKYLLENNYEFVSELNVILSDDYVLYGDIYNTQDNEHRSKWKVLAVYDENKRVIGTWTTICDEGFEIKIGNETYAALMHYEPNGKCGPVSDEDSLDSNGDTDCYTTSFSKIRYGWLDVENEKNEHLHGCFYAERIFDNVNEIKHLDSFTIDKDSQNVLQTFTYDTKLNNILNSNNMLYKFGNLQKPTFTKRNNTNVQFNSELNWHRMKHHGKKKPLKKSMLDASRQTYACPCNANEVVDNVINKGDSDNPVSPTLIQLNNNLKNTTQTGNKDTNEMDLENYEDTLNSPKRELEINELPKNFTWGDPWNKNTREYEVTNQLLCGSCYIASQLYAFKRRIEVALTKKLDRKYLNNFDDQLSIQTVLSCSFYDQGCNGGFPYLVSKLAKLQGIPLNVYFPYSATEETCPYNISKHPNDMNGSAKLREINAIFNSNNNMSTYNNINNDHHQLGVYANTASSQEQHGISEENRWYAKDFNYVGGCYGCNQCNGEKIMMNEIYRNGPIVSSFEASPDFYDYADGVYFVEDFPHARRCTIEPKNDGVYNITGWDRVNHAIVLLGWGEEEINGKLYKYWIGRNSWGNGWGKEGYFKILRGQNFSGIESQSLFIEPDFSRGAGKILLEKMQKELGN
row,Compound,% Inhibition @ 10 uM [%]
1,O=C(NCc1ccco1)c1nn2c(c1Cl)NC(c1cccs1)CC2C(F)(F)F (stereo not drawn),-2.87
2,CCCc1[nH]nc2c1C(c1cncc(-c3ccc(F)cc3)c1)C(C#N)=C(N)O2 (stereo not drawn),-4.6
3,CCc1ccc(C2C3=C(CC(C)(C)CC3=O)OC3=C2C(=O)CC(C)(C)C3)cc1,2.3
4,CCSc1nc(O)cc(=O)n1-c1ccccc1,-3.67
5,CCOc1ccccc1-c1nc(O)c2c(n1)Oc1ccccc1C2,0.655
6,CC(C)c1ccc(-c2csc(NC(=O)C3C4CCC(C4)C3C(=O)O)n2)cc1 (stereo not drawn),2.79
7,COc1ccc(CC(C)N[C@H]2CCCCNC2=O)cc1 (stereo partly drawn),1.88
8,O=C(/C(=C/c1ccccc1)c1nc2ccccc2[nH]1)c1ccccc1,-3.35
9,CC(C)c1ccc(OCC(=O)N(Cc2ccccc2F)C2CCS(=O)(=O)C2)cc1 (stereo not drawn),3.62
10,O=C(c1ccccc1)N1CCCC2CCCCC21 (stereo not drawn),1.9
11,Cc1cccc(-c2cc(C(=O)Nc3ccncc3)c3ccccc3n2)c1,7.27
12,CCOCCCNC(=O)C(c1ccccc1)N(Cc1cccs1)C(=O)CNC(C)=O (stereo not drawn),-1.2
13,Cn1c(=O)n(C)c2cc(S(=O)(=O)N3CCCCC3)ccc21,-0.173
14,Cc1cc(O)n2nc(NCc3ccccc3F)nc2n1,-4.19
15,NC(=O)C1CCN(C2CCCCCC2)CC1,1.88
16,O=C(NCc1ccc(F)cc1)c1nc(O)c2nnn(Cc3cccs3)c2n1,-3.64
17,CCCS(=O)(=O)N1CCC(C(=O)Nc2cccc(Cl)c2)CC1,-2.82
18,Cc1cc(OCC(=O)Nc2ccc(S(=O)(=O)N(C)C)cc2)cc(C)c1Cl,-1.89
19,CC1=C(CCN2CCN(C=O)CC2)C(C)(C)CCC1,-6.62
20,COc1ccc(S(=O)(=O)N2CCC(NC(=O)NCC3CCCCC3)CC2)cc1,-2.84
21,CC1CCCCC1N(C)C1CCN(CCCNC(=O)/C=C/c2ccccc2Cl)CC1 (stereo not drawn),-1.27
22,CCOC(=O)C1=C(CN2CCn3cccc3C2C)NC(=O)NC1c1ccc(OC(C)C)cc1 (stereo not drawn),5.58
23,Cc1cc(NC(=O)Cn2ncc3c4ccccc4n(C)c3c2=O)no1,1.15
24,Cc1ccc(C2OC3(C(=O)c4ccccc4C3=O)C3C(=O)N(c4ccc(Br)cc4)C(=O)C23)cc1 (stereo not drawn),-3.79
25,Cc1cccc(C)c1-c1ccc(S(=O)(=O)N[C@@H](CC(C)C)C(=O)NCC#N)cc1,-6.98
26,N#C/C(=C\c1ccccc1C(F)(F)F)c1nc(O)c2ccccc2n1,-6.6
27,O=CN1CCN(C2Cc3ccccc3C2)CC1,1.88
